The labels stand for the following.
B1: LINE1-full (parent)
chain: UACGUAGGUGGUUUUCCCCUGAUAGUGCUAAGGGGGCCUGGAAGUUUGGACUGGGCAGAGCUCAACACAGCGUGGCAAAGUGGCUGUGGCUAGACUGCCUCUCUGGAUUCCUCGUCACUCAGCAGGGCAUCUCUGAGAGAAAUGCC

Read counts are not given, so values of variants with three or more changes are uncertain.

Variants of B1 are the subject of this series. As to the kind of experiment: self-cleavage, relative activity (ratio to wild type); higher = more cleavage; in vitro, sequencing; the parent is a self-cleaving ribozyme.
Regarding G33A U73C G126A, the self-cleavage came out at 1.51.
The figure for A30U C95U A107U is 0.25; for G33C U47A U104G A136G it is 1.58.
Consider A31G U130C A140G, for which the self-cleavage was determined as 0.63.
The figure for A31U A42G U91C is 1.6; for A31U U45C C103U U104C it is 0.6.
Next, G34A G72A U85C C95U U130A: 0.02; G32C A50G G55U: 0.08; A31U A43G A65U U73C A121G: 0.
As for G33A C61U A64C A67U, the self-cleavage was 0.08.
As for A30G U45C G49A U102C, the self-cleavage was 0.74.
Regarding G33A U46C U112C A124G, the self-cleavage amounted to 0.18.
The figure for A30U A57G A69U is 0.15; for G33A A43U U109C G125U it is 1.43; for A30G U73A U100C it is 1.7.
For A30G U73C U81A U85C U109A, the self-cleavage worked out at 0.
Next, G33A U62C U96A A124G G135A: 0.04.
Take G32A U39C U132C: the self-cleavage was determined as 1.05.
Next, G33A U52C U85C A94U G105U: 0.08; G32U A92G A129U: 0.07; A30U U119A U134C: 0.65.
The figure for A31U U96C U104A is 0.1.
The figure for G33A G74A U115A is 1.25.
Regarding A31U U62C G89A, the self-cleavage came to 0.08.
On to G32A U47A U112C, for which the self-cleavage turned out to be 0.67.
The figure for A30U A57G U102G is 2.63; for A31G G105U A136U it is 1.14; for A31U G114A C120U A141G it is 0.59.
With G32U A67G G75A, the self-cleavage was 0.28.
The figure for G34A U91C U96C U104C is 0.28.
Next, A31G A43G G88U U112A A136U A138U: 0.08; G32A A59U A64U U85C C90U A136G: 0.04; G33A U47C A59G U102C: 0.
The figure for G32A A43G U100C A136G is 1.05.
A31G U39C G82A: the self-cleavage is 2.1.
Regarding A30G U73C C84G, the self-cleavage came to 0.44.
Consider A30G U39C A142G, for which the self-cleavage came to 1.2.
Regarding A30U U62C U73C, the self-cleavage worked out at 0.2.
Next, A30G U85C U130A: 0.47; A30U C71U U109A A136G: 1.18.
Next, A30U A43G U109C U130C: 0.34.
For the variant G34A A43G U112A A129G, the self-cleavage worked out at 1.17.
On to G34U A59U A77G A121U, for which the self-cleavage came to 1.57.
A30G G35A U91C A141G: the self-cleavage amounted to 0.67.
The figure for A31G U85A U115A A141G U143C is 0.11; for G34A U52A U100A it is 1.1; for A30G U39C A124G it is 0.38.
With A30G G70A A138G U143C, the self-cleavage came to 0.15.
Next, A30U A43U A50G: 0.3; A30U A78G A136G: 1.02; G34A G49A U102A: 0.15.
Next, A30G U47C C71A: 1.44.
The figure for G32C G54A A57U U62C is 0.05.
For the variant A31C G35C G44A U134C, the self-cleavage was determined as 1.95.
The figure for G32C U45C C71U A94G A124G is 0; for A30U G83A U85C it is 0.11.
As for G34A U52A A64G A67U C128A, the self-cleavage is 0.03.
As for A31U U45A A69G A138G, the self-cleavage is 0.4.
Next, G34A A94G U102C U104A A117G: 0.54; A31G A43G G114C U143C: 1.13.
Consider A31U A42G U62C G88A, for which the self-cleavage worked out at 0.06.
Next, A31G A79G A117U A142G: 1.09; A30G A79G A136G: 0.92; A31U G48A U100C C116U G125U: 1.81.
Next, A30G U52C C90U U102C A117U C128U A140G: 0; A30G U52C U96C: 0.89; A30G U62C G89A: 0.
Next, A31U A117G A136G A140U: 2.36.
As to G32U G60U A77C, the self-cleavage was determined as 0.
For the variant G34A A57G U91A U102C G105A, the self-cleavage stood at 0.18.
Next, G32A U47C A78G: 1.47; A30U G32U A140U: 1.25; A31G A57G A124G: 0.
Regarding A30U A31U A42G, the self-cleavage was determined as 0.29.
G32A A78G C128U U130G A140G: the self-cleavage was 1.21.
Next, G34C U81A U109C A124G: 1.31; G34U A67G A92G A129U: 0.
Take A30U G35A U52C U85C U119C C128U: the self-cleavage is 0.09.
The figure for G34A U112C U115A is 1.06; for A31G A94C A142G it is 0.33.
The figure for A31G C38U G55U U73C is 0.39.
Next, A31U A65G A136G: 0; G32A A57U A77G: 0.17.
On to A31U A65G U81A U143A, for which the self-cleavage stood at 0.06.
The figure for A30U U46A A67G is 0.41.
Regarding G34C G53A G60A, the self-cleavage was found to be 0.04.
The figure for G34U A50U A57U A77G A107U is 0.07; for G34A A57G C101U U108C it is 1.39; for A31U A59U G89U it is 0.01.
A30G U52A A65U: the self-cleavage was determined as 0.26.
In the case of G34A A121U A124U, the self-cleavage was found to be 1.21.
As for G32A U47A U85C A107U, the self-cleavage came to 0.1.
For G32A U81A U119C A141G, the self-cleavage amounted to 2.03.
In the case of G32C A94G U132A, the self-cleavage is 0.51.
Next, G33A A78G U108C U115C A124U: 1.15.
Next, G34U A67G A79G A117G: 0.3; A31G G33A U112A U132C: 1.69.
Take A31U A59U A67G C116U: the self-cleavage turned out to be 0.34.
The figure for A31G A138U A141G is 0.56; for A30G C61G U112A A117G it is 0.44; for G34A G48A A78G U108C it is 1.67.
For the variant G33U U45A U47A, the self-cleavage came out at 1.31.
Next, G33A A64G A77G: 0.35; A30U C68U U132C: 0.56.
Consider G32U G33A U108C, for which the self-cleavage came out at 0.84.
As to A30G U85C A121U, the self-cleavage is 0.54.
Next, A31G A43G A78G C90U: 0.04; G32A A43G A78U U81A: 2.46; G32C A77G A92U: 0.92.
Next, G32A U96A C128A: 0.
Next, A30G U39A U104A: 0.84.
As for G32A G54U A121G, the self-cleavage turned out to be 1.5.
G32A A42U A136G: the self-cleavage came to 1.22.
Turning to A30U U52C A78U U115C, the self-cleavage was 2.19.
The figure for A31G G49A A107G U130A is 1.23; for G32U U62A U91C it is 0.01.
Consider A31U A50G A59G A64U, for which the self-cleavage was determined as 0.
As to G33A A67G C68U, the self-cleavage was 0.09.
Next, A31U U85C A121G A140G: 0.26.
The figure for A31U U119C A136G A140G is 1.68; for A31U U62C U91C U96A G127A A142G U143C it is 0; for A31G C38A U115C A142U it is 1.18.
For A30G U96C U112C A138G, the self-cleavage is 0.
In the case of A31U U100C U143C, the self-cleavage was 2.07.
For A31G U85A A136U, the self-cleavage came to 0.
The figure for A31G A64G G82A A138G is 0.73.
Next, A30U A67G A124G: 0.32; A30G U73A U102C A129G: 2.59; G33A G44A A79G C145U: 1.42.
Next, A30U C71G U81A G89A A121G A140G: 0.02.
Turning to G33A A50G U115C A141G, the self-cleavage came out at 1.15.
Take A30G A78G A79G A129G A138G: the self-cleavage came out at 0.
Next, G32A A69G C71U U112C A129G: 0; A31G G33A U52A A64C U102C: 0.23; G32A A69G U112C A121G: 0.42.
Next, A31G U39C U119A: 1.75; A31G A78G U132C: 1.23; A30U U47A U119A A121G: 1.37.
Take A30U A117G G122A: the self-cleavage came to 1.08.
Next, G32A U119C A124U A142G: 2.17; G32A U96A U104C U115C A140C: 0.2; G32A C38U C68U U102A A124G: 0.14.
Next, A31U G36A A59G U104A U112C: 0.03.
With A31U A65G U87A A107G, the self-cleavage was found to be 0.17.
Next, G32U U102C U115C A124U: 1.9.
Next, G32U U81C G88A U100C: 0.04; A30G U46A U112C U115C: 2.25.
With A30G U52C U115C A142G, the self-cleavage was 0.
On to G33A G35U A42G A65G A78U G88A U100C, for which the self-cleavage turned out to be 0.01.
As for G34A U62C U96C U109C, the self-cleavage came out at 0.04.
The figure for A31U U39C A57G is 0; for A30G U62C A121U it is 0.
With A31G A57G G139C, the self-cleavage was determined as 0.38.
Next, A30G U132C A138G: 1.08; A30G A67G U109C A141G: 0; A31U G34U U85A A136G: 0.14.
Next, A31U U39C U85C: 0.62; A30G A69G U130C: 0.
Consider A31G U46A C51A, for which the self-cleavage is 1.05.
Regarding G33U G114A U143A, the self-cleavage worked out at 1.03.
Next, A30G C61A G70C U85C: 0.12.
The figure for G32A U39C A50G is 0.96.
The figure for A31C U73A C76U A124G U130C is 2.35.
Consider A31C G75A U132C, for which the self-cleavage is 0.81.
The figure for A31C A50U A107U A117U is 1.94; for A30G U132C A141G it is 1.53.
The figure for A31U C101U U102C is 0.59.

The record behind these values is the RNAGym collection of RNA variant scans (doi:10.7554/elife.90254).
